Results taken from the supplement of paper PMC11417369.
± gives the standard deviation of the averaged measurements. The list shows a part of the results.

Test system: PfAP2-I AP2 domain 3 (GST-tagged)
Assay: gcPBM binding intensity (ln(normalized median fluorescence intensity)); higher = stronger DNA binding
Outline: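 The binding buffer was 1× PBS containing 1% milk, 0.2 mg/ml BSA, 0.5% salmon testes DNA and 0.03% Triton X-100. In it, GST-tagged P. falciparum DNA-binding domains expressed in E. coli were applied for 1 h to an Agilent 4 × 180k array of primer-extended double-stranded 36-bp intergenic genomic probes plus negative controls. Binding intensity, read with Alexa488 anti-GST antibody and a 488 nm scan, is the highest Masliner-normalised natural-log median intensity across replicate spots of either probe orientation.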

Sequence	gcPBM binding intensity (ln)
TTATATTTTAAGAAATGTACATGATATAATTATCAA [XGTACX_site8693]	7.71 ± 0.52
TGGATGAGGACATACACACACACATAAGTTGATACA [CACACA_site3423]	7.93 ± 0.3
TTTTTTTTAATTTTCTGTACAAATTTATATATACTA [XGTACX_site4251]	7.87 ± 0.62
AATGAAAAGGAACATACACACCCCATATAAATATAT [CACACA_site7588]	8.14 ± 0.75
TATTTCTTATGAAGGACATGCAATATTATTTATCTC [TGCATGCA_site683]	7.83 ± 0.35
GGTCTTTTTATGATATGTACTTATATAATATTATAT [XGTACX_site6458]	8.39 ± 0.36
ATGTAGAAGTAATGCACACATATGTATATATATATA [CACACA_site2494]	10.9 ± 0.63
AACAGCATGAAGTAAAGTACTAGTTTTATTTATTTA [XGTACX_site1116]	7.31 ± 0.42
AGGAAATTTTTTTTTTTTTTTTTTTTTTTTTTTTAC [TGCATGCA_negctrl_site170]	7.5 ± 0.56
CAAAATATTATGAATTGTACATATTTTAAAACGTTT [XGTACX_site1614]	7.54 ± 0.49
TGATAAGTATACTAAAGTACATGAAAAATAACTTCC [XGTACX_site6908]	7.69 ± 0.58
TCCTAATGGTTTAATTGTACAAAAAAAAAAAATATA [XGTACX_site322]	7.64 ± 0.37
ATAGATGTCTTCATATGTACATAAATTCAAGTATAT [XGTACX_site7492]	7.79 ± 0.43
TGATTATAAAAGTAGGTGCTACAAAAATTACACATT [GTGCAC_site9530]	8.7 ± 0.45
AAAAAATTTTGAAATTGTACATATATAAAAAATATA [XGTACX_site2629]	7.59 ± 0.29
TTTAAATATATTAATACACACACGATATGTACAAAA [CACACA_site539]	8.06 ± 0.43
GAATAAATTGTATTGTGTACATATAAAAGCATCTAA [XGTACX_site8271]	7.93 ± 0.4
TATAAATATACAAAGGTGCATAAAAAGTTATGTTTT [GTGCAC_site9832]	11.2 ± 0.26
TTTCTATAATATTCTACACACCAACAACAAACATAT [CACACA_site6409]	8.29 ± 0.33
TTTCGAATTAAAGCATGTGAAAATTTTCAAAAAATA [XGTACX_negctrl_site577]	7.78 ± 0.61
GAATCACTAATTTTTTTACACACCACAATTTAATTT [CACACA_site8311]	8.21 ± 0.74
ACAAAACATAATTGTTGTACAAAAAGAATTATATAT [XGTACX_site8422]	8.18 ± 0.52

Sequence	gcPBM binding intensity (ln)
ATAATAATATAATATTCACACAATTGAAATAGTGTA [CACACA_site6083]	7.54 ± 0.49
AAATAAAAATTACAAGCATGCATTTTCCTATTTGCA [TGCATGCA_site861]	7.84 ± 0.88
GTGTAAAAATTAAAGTGTACACATATATATATATAT [XGTACX_site2251]	9.6 ± 0.3
AAGTTAATGTTTTGCGCACACTTCTTTTTAATATAA [CACACA_site3938]	9.18 ± 0.23
TTCTTTATATAAACAAGTACATATAAAATACATATA [XGTACX_site8036]	7.8 ± 0.41
ACAGCTCTAGGACATGCATGTTATATAGAAAAAGAG [TGCATGCA_site703]	8.39 ± 0.61
AAATACATATTTAGAAGTACATTTATACATTTAATA [XGTACX_site8871]	7.59 ± 0.43
TTCATTAAAGTTATTACACACAGTTCTTCAACCAAA [CACACA_site7613]	7.88 ± 0.46
ATTTTTTCTTATAAAAAAGAAAAAGAAAAAGAAAAA [CACACA_negctrl_site1216]	7.96 ± 0.49
TATATATTAAGATGCACACACAAGAAGTAATTATAA [CACACA_site5726]	8.68 ± 0.54
GATGAGGACAGACACACACACATAAGTTGATACATA [CACACA_site7580]	8.12 ± 0.33
TTTTTTTCTTAAAGATGTACTTTTTAAAAACAATCT [XGTACX_site986]	7.79 ± 0.43
AGACATATTCTTTTTACACACTTGAATAAAAAATAT [CACACA_site1205]	7.94 ± 0.47
CATTTTATAAAAACAAGTACCCAACATATATATAAT [XGTACX_site5955]	7.82 ± 0.47
GTTTTTACTTTTATCTGTACATAATACTACCAATAT [XGTACX_site5414]	8.27 ± 0.43
TGCCTATGACATGAATGTACATTAAAATTAAATAAA [XGTACX_site7126]	7.55 ± 0.44
GTTGGGTAATTCGTAACACACATAAAATATATATAA [CACACA_site3986]	7.89 ± 0.44
CACGCGCACCAACACACACACACACCCATATATATA [CACACA_site2204]	8.82 ± 0.47
CTGTACACTTAAACGGTGCAAAAAGAAAAAAAAGAA	11 ± 0.38
TATATATAATATGAATGTACACAAAAAGGTAATACA [XGTACX_site6202]	8.22 ± 0.42
AAAAAAAAGAAATAGACACACATATATTTTTAAACA [CACACA_site3954]	7.5 ± 0.61
TGATATAAAATTAAAGTGCAAAAAAAAAATAAAAAA	10.06 ± 0.078
